Over roughly 110,000 compounds, “z-score” has its median near -0.1; the highest 2% begin near 2. The list shows a part of the results. Active and inactive are the calls of the source.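 The calls were made as follows: active = z-score in the third read window above 3 or below -3; inactive = the rest.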

In this experiment the target is Metabotropic glutamate receptor 8 (Rattus norvegicus) (UniProt P70579). The experiment is described as follows: mGluR8 Gi/Go-coupled signaling modulation – cell-based, rat, thallium flux, HTS, primary screen (AID 488969). Particulars: HEK293 rat mGluR8, GIRK (G protein-gated inwardly rectifying potassium channel) thallium flux, FluoZin2; at 10 µM; stronger effect = higher value; submaximal glutamate (EC20) added with thallium.
UniProt P70579, sequence (P70579 whole entry, looked up): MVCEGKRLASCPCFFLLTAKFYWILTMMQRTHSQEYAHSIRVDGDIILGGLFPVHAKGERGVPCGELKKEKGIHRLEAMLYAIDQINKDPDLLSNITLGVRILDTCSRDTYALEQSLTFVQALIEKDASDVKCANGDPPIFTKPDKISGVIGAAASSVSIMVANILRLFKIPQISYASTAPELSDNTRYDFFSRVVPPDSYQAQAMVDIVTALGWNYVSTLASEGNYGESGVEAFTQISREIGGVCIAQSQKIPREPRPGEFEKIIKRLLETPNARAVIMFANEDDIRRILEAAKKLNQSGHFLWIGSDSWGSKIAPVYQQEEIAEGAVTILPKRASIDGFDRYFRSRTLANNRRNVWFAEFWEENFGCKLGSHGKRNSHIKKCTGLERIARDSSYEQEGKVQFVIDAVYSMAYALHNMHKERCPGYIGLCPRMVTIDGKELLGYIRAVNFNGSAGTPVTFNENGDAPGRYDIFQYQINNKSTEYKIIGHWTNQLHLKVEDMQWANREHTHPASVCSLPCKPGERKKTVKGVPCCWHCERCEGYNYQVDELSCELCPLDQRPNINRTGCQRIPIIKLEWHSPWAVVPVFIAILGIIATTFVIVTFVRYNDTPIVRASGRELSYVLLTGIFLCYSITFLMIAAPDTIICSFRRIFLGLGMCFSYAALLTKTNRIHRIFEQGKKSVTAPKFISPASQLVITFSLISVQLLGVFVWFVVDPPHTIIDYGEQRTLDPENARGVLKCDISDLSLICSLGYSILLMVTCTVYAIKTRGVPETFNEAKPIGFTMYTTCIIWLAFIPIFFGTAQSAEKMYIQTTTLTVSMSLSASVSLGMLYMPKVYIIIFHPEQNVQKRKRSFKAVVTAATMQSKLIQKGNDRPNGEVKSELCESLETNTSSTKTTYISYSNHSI
Compound `CSc1nnc(-c2ccccc2)c(=O)[nH]1` registered a z-score of -0.266.

In turn, `c1ccc(Cn2nnnc2-c2ccco2)cc1` had a z-score of -0.194.

In turn, `CCOC(=O)N1CCN(C(=O)c2ccc3c(=O)n(CC4CCCO4)c(=S)[nH]c3c2)CC1` (centres undefined) registered a z-score of 0.178.

Take `CCOC(=O)CCC(NC(=O)CCCCC(=O)NC(CCC(=O)OCC)C(=O)OCC)C(=O)OCC` (centres undefined): the z-score amounted to 0.954.

Take `Cn1c(=O)c2c(nc(CN3CCc4ccccc4C3)n2CCc2ccccc2)n(C)c1=O`: the z-score is -0.281.

Compound `Cc1cccc(Sc2ccc([N+](=O)[O-])cc2[N+](=O)[O-])n1` displayed a z-score of -0.278.

In turn, `COc1ccc(OCC(O)Cn2cnc(-c3ccc(Br)cc3)c2)cc1` (centres undefined) had a z-score of 0.693.

`O=C1CN(C(=O)CSc2nc3ccccc3n2CCc2ccccc2)c2ccccc2N1` yielded a z-score of -0.346.

With `O=C(Nc1cccc2nsnc12)c1cccnc1`, the z-score was 0.07.

On to `COC(=O)c1ccc(-c2sc3nc(N4CCOCC4)c4c(c3c2N)CCCC4)o1`, for which the z-score is 1.06.

Compound `O=C(COc1ccc2oc(-c3ccccc3)cc(=O)c2c1)NCc1ccco1` yielded a z-score of -0.671.

Take `Cc1cc(N2CCCCCC2)nc2ccccc12`: the z-score is -0.134.

The compound `CC(C)CC(=O)Nc1cccc(C(=O)Nc2ccccc2C(=O)O)c1` gave a z-score of -0.773.

Compound `N#Cc1nc(-c2ccc(OCc3ccccc3)cc2)oc1N1CCOCC1` came in with a z-score of 0.782.

`CC(C)Oc1ccccc1C1CC(=O)Nc2cc3c(cc21)OCCO3` (centres undefined) displayed a z-score of -1.04.

`O=C(NC(=S)NC(=O)c1ccccc1F)c1ccccc1F` returned a z-score of 0.339.

In turn, `CCCOC(=O)CSC1=C(C#N)C(c2ccccc2OC)C(C#N)C(=O)N1` (centres undefined) showed a z-score of -0.687.

With `O=C(CSc1nnc(-c2ccc(O)cc2)n1-c1ccccc1)CC(=O)Nc1ccccc1`, the z-score is -0.867.

In the case of `COc1ccc(NC(C)C(=O)N/N=C/c2ccccc2OCc2ccc(Br)cc2)cc1` (centres undefined), the z-score amounted to 0.175.

Take `COc1ccc(OC)c(S(=O)(=O)N(C)CC(=O)Nc2ccccc2OC)c1`: the z-score was determined as 1.3.

As for `COc1ccc(Oc2nnnn2-c2ccccc2)cc1`, the z-score was -0.0585.

For `CCOC(=O)c1csc(NC(=O)c2ccc(S(=O)(=O)N(C)C)cc2)n1`, the z-score stood at 0.173.

In the case of `Cc1cc(=O)oc2cc(OCC(=O)NCCCN3CCOCC3)ccc12`, the z-score is -0.181.

For the compound `O=C(CN(Cc1ccco1)S(=O)(=O)c1cccs1)Nc1ccccc1C(F)(F)F`, the z-score worked out at 0.0674.

`Cc1ccc(-c2nnc(N(C)C(=O)c3ccncc3)s2)cn1` showed a z-score of 0.272.

On to `O=C(CN1C(=O)C2CC=C(Cl)CC2C1=O)N1CCOCC1` (centres undefined), for which the z-score was -0.256.

Consider `O=C(NCC(=O)N(CCc1ccccc1)C(C(=O)NC1CCCCC1)c1ccncc1)c1ccco1` (centres undefined), for which the z-score is 0.798.

In turn, `CCC1CCCCN1C(=O)CSc1nc2ccsc2c(=O)n1Cc1ccccc1` (centres undefined) returned a z-score of -0.217.

Regarding `CC(=O)c1ccc(NC(=O)CSc2nccn2CCc2ccccc2)cc1`, the z-score was -0.108.

In turn, `O=c1c2c3c(sc2ncn1-n1cccc1)CCCCC3` yielded a z-score of -0.0877.

For the compound `COc1ccc(C(=O)OC(COc2ccccc2)Cn2ccnc2)cc1` (centres undefined), the z-score worked out at 0.964.

For `O=C(Cc1ccc(Cl)cc1)N/N=C1\CCCc2ccccc21`, the z-score stood at 0.288.

Compound `COCCn1c(CN(C)Cc2ccccc2)nc2c1c(=O)n(C)c(=O)n2C` came in with a z-score of -0.377.

`CC(Nc1cc(=O)n(C)c(=O)[nH]1)c1ccccc1` (centres undefined) showed a z-score of -0.0898.

`CC/C(O)=N\S(=O)(=O)c1ccc(N=NN(C)C)cc1` returned a z-score of 0.383.

For the compound `Cc1ccccc1N/C(SCc1ccc(Cl)cc1)=C(/C#N)C(N)=O`, the z-score was -0.0867.

`CN(C)C(=O)c1ccc2c(c1)n(C)c(=O)n2C` gave a z-score of 0.644.

As for `Cc1nc(N2CCc3ccccc3C2)[nH]c(=O)c1CCC(C)C`, the z-score is 0.0795.

As for `Cc1cccc(N(CC(=O)N2CCCC2)S(=O)(=O)c2ccccc2)c1C`, the z-score was -0.0906.

As to `CCCOC(=O)c1sc2nc3c(cc2c1N)C(=O)CCC3`, the z-score was -0.569.

The compound `COc1cc2c(C#N)c(N3CCN(C)CC3)nc(N)c2c(N)n1` had a z-score of 0.307.

`COc1ccc(CCNC(=O)CNS(=O)(=O)c2cccs2)cc1OC` returned a z-score of -0.0149.

Consider `CCn1nnnc1SCC(=O)NNC(=O)C1CCCCC1`, for which the z-score is -0.27.

`O=C(CNC(=O)c1ccco1)Nc1ccc(S(=O)(=O)N2CCCC2)cc1` had a z-score of -0.202.

The compound `COc1cc(CNC(C)c2ccccc2)c(Br)cc1OCC(N)=O` (centres undefined) came in with a z-score of -0.121.

`CSc1nnc2n(Cc3ccccc3)c(=O)c3c4c(sc3n12)COC(C(C)C)C4` (centres undefined): the z-score is -0.311.

Turning to `C=CCSC1=N/C(=C\C=C\c2ccco2)C(=O)S1`, the z-score was -0.31.

The compound `Cc1ccc(Cl)c(OCC(=O)Nc2sc(C)c(C)c2C#N)c1` returned a z-score of 0.877.

As to `O=C(Cc1ccc(-n2c(=S)[nH]c3ccccc3c2=O)cc1)N1CCC(N2CCCCC2)CC1`, the z-score came to 0.0829.

As for `CCC(C)NC(=O)CSc1nnc(-c2ccoc2C)n1CC1CCCO1` (centres undefined), the z-score was -0.168.

`NNc1nc2c(F)cccc2s1`: the z-score amounted to 0.0402.

Compound `Cc1ccc(OCC(=O)NCc2ccccn2)cc1` yielded a z-score of 0.0307.

With `COc1ccc(/C(C)=N\NS(=O)(=O)c2ccccc2)cc1OC`, the z-score was -1.56.

Turning to `O=C(Nc1ccc(F)cc1)c1ccc(-n2ccnc2)nc1`, the z-score is -0.238.

Regarding `CCOc1ccc(/C=N/n2cnnc2)cc1`, the z-score was determined as 1.83.

For the compound `O=C(Cn1c(COc2ccc(Cl)cc2)nc2ccccc21)NCC(F)(F)F`, the z-score was -0.0844.

As for `CCCCNc1c2c3c(cccc3n(C)c1=O)C(=O)c1ccccc1-2`, the z-score was active: 16.2.

`NC(=O)N/N=C/c1ccc(N2CCOCC2)s1` yielded a z-score of -0.0709.

Compound `CCOc1ccc(Nc2c3c(nc4ncnn24)CC(C)CC3)cc1` (centres undefined) gave a z-score of -1.23.

Take `COc1ccc(N2CC(C)Cn3c2nc2c3c(=O)[nH]c(=O)n2C)cc1` (centres undefined): the z-score was -0.0601.

`Cc1noc(C)c1C(=O)Nc1c(F)cc(F)cc1Br` had a z-score of 0.559.

Compound `CSc1ccccc1NC(=O)c1cc(C(C)C)on1` gave a z-score of 0.177.

In turn, `COc1ccc(O)c(C2=Nc3ccccc3N=C(c3ccco3)C2)c1` registered a z-score of -0.0378.

`CCOC(=O)C1CCN(C(=O)CN(c2cccc(C(F)(F)F)c2)S(C)(=O)=O)CC1` had a z-score of -0.032.

In turn, `O=C1c2ccccc2C(=O)N1CCc1nc2ccccc2c(=O)n1-c1ccccn1` showed a z-score of 0.0757.

`CCN(CC)CCCN1C(=O)C(O)=C(C(=O)c2cc3cccc(OC)c3o2)C1c1ccncc1` (centres undefined) came in with a z-score of 0.548.

In the case of `CC[C@H](C)[C@H](NC(=O)c1ccc(Cl)cc1)C(=O)OCC(=O)c1ccc2c(c1)NC(=O)CO2`, the z-score was determined as 0.101.

`CC(C)(C)c1cn(-c2ccc(Cl)cc2)c(=S)[nH]1` gave a z-score of -0.267.

In the case of `Cc1ccc(NC(=O)/C(=C\c2ccc3c(c2)OCO3)NC(=O)c2ccco2)cc1`, the z-score is -0.271.

In turn, `CC1CCN(c2c(NCC3CCC(C(=O)N4CCCC(C)C4)CC3)c(=O)c2=O)CC1` (centres undefined) came in with a z-score of -2.02.

Compound `Cc1cccc(C)c1OCc1nnc(SCC(=O)Nc2nccs2)n1-c1ccccc1` had a z-score of -0.09.

The compound `Fc1ccc(-c2nnc(CSc3nnc(-c4cccs4)o3)o2)cc1` had a z-score of -0.122.

`CN(C)CCNS(=O)(=O)c1ccc(N2CCN(c3ccc(F)cc3)CC2)c([N+](=O)[O-])c1` showed a z-score of 0.621.

`CN=C(Nc1cc(C)nn1-c1ccccc1)c1ccccc1` came in with a z-score of 0.0933.

In the case of `CCc1sc(NS(C)(=O)=O)nc1-c1ccccc1`, the z-score came out at 0.162.

For `CCOC(=O)c1ccc(Nc2nnc(C(C)(C)C)c(=O)[nH]2)cc1`, the z-score was -0.532.

With `CCCC(=O)Nc1ccc(C(=O)O)cc1NC(=O)CCC`, the z-score was -0.181.

As to `COc1ccc(/C=C2\CCCC(C(=O)C(F)(F)F)=C2O)cc1`, the z-score is 2.59.

On to `CC1=C(C(=O)Nc2ccc(C)cc2)C(c2ccco2)NC(=O)N1` (centres undefined), for which the z-score is -0.8.

For `COc1cc(C2c3c(-c4ccccc4)n[nH]c3C(=O)N2c2ccc(C(=O)O)cc2)ccc1O` (centres undefined), the z-score is -0.268.

In turn, `COC(=O)c1ccccc1NC(=O)C1CC(=O)N(c2ccccc2)C1` (centres undefined) displayed a z-score of -0.0106.

`CC(C)CCNC(=O)c1ccc2nc[nH]c2c1` displayed a z-score of -0.133.

The compound `CC(C)c1ccc(NC(=O)COC(=O)/C=C/c2cccc(Br)c2)cc1` had a z-score of -0.0329.

In turn, `Cc1cc(C)c2c(CC(=O)Nc3nccs3)coc2c1` gave a z-score of 0.202.

`COc1ccc(CCNC(=O)c2ccc3c(c2)NC(=O)C(N2CCOCC2)S3)cc1OC` (centres undefined) yielded a z-score of -0.194.

With `Cc1cccc(-n2ncc3c(NCCCN4CCCC4=O)ncnc32)c1`, the z-score was -0.117.

`O=C(Nc1cnc2ccccn2c1=O)c1ccc(Cl)cc1`: the z-score is -0.161.

`CC1SC(c2cccc(Cl)c2)NC1=O` (centres undefined) gave a z-score of 0.0604.

The compound `CCc1ccc2nc(NC(=O)CSCc3c(C)noc3C)sc2c1` displayed a z-score of -0.0333.

As to `Cc1ccc(NC(=O)Nc2cccc([N+](=O)[O-])c2)cc1F`, the z-score is -0.525.

`CCC(=O)Nc1cccc(C(=O)c2ccccc2)c1` registered a z-score of -0.144.

With `CCn1c(NC(C)=O)nc2ccccc21`, the z-score was -0.0713.

With `O=C(O)CSc1nnc(-c2ccncc2)n1-c1ccc(Cl)cc1`, the z-score is -0.269.

In turn, `CCOC(=O)c1ccc(CNCc2ccc(C)cc2)cc1` registered a z-score of 0.302.

As for `Cn1c(=O)n(C)c2cc(/C=N/n3cnnc3)ccc21`, the z-score is 0.045.

`CC(C)n1c(O)c(N=NC(=O)Cn2ccc(C(F)(F)F)n2)c2ccccc21` had a z-score of 1.13.

Take `C/C(Sc1nnc(Cc2ccccc2)o1)=C(/O)c1ccccc1`: the z-score is -0.227.

Regarding `C=CCSc1nc(-c2ccc3c(c2)OCO3)cc(C(F)(F)F)c1C#N`, the z-score was -0.124.

`CS(=O)(=O)N(Cc1ccc(C(=O)NCc2ccco2)cc1)c1ccccc1`: the z-score was -0.268.

For the compound `O=C(/C=C/Nc1cccc(F)c1)c1ccco1`, the z-score is -0.353.

Compound `CCCn1nnc(NC(=O)Cc2ccccc2)n1` came in with a z-score of 0.0335.

In the case of `O=C1CC(N2CCSCC2)C(=O)N1CCc1ccccc1` (centres undefined), the z-score was -0.109.

As to `CCOC(=O)CC1C(=O)NCCN1S(=O)(=O)c1cc(Cl)c(Cl)cc1Cl` (centres undefined), the z-score stood at 0.372.

`Cc1ccc(NC2=C(CC(=O)O)C(c3ccccc3)N(c3ccc(C)cc3)C2=O)cc1` (centres undefined) came in with a z-score of -0.426.

With `Cc1nc2nc(-c3ccccc3)[nH]n2c(=O)c1C`, the z-score is -0.392.

The compound `C=CCNC(=S)N1CCN(c2ccc([N+](=O)[O-])cc2)CC1` showed a z-score of 2.09.

The compound `Cn1c(NC(=O)c2cccnc2)nc2ccccc21` showed a z-score of 1.12.

For `CC(=O)Nc1cc2c(nc1C)nc(C)n2Cc1ccc(Br)cc1`, the z-score worked out at 0.526.

Take `CCn1c(SCC(=O)Nc2nc3ccccc3s2)nnc1-c1ccc(OC)cc1`: the z-score was -0.418.

`CC1CCN(S(=O)(=O)c2ccc3[nH]c(=O)c(=O)[nH]c3c2)CC1` returned a z-score of 0.0825.

The compound `Cc1cccc(N=C2NC(=O)CS2)c1` came in with a z-score of 0.297.

For the compound `c1cc(-c2noc(CC3CCCCC3)n2)ccn1`, the z-score was -0.0618.

`COCCCN1CC23C=CC(O2)C(C(=O)OC)C3C1=O` (centres undefined) showed a z-score of 0.19.

As to `Clc1cccc(CSc2nnc(-c3ccccn3)n2Cc2ccco2)c1`, the z-score was active: 3.12.

The values above are taken from PubChem BioAssay AID488969 (Vanderbilt High Throughput Screening Facility, 2010).
